We go through 31 compounds from PubChem BioAssay AID1745853 (National Center for Advancing Translational Sciences (NCATS), 2022).

What all share (assay): Primary Screen for Target Class Profiling of Small Molecule Inhibitors of Methyltransferases
Test [1] has as its target Glycine N-methyltransferase (Homo sapiens) (UniProt Q14749). The settings on record: purified enzyme, MTase-Glo SAH luminescence; measured here: GNMT inhibition; at 40 µM; stronger effect = lower value. In outline:
(§1)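 Each enzyme was reacted with SAM and its substrate, with compounds tested once at 40 uM; SAH formed was read by MTase-Glo luminescence.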

Test [2] deals with Guanidinoacetate N-methyltransferase (Homo sapiens) (UniProt Q14353). The conditions noted are these: purified enzyme, MTase-Glo SAH luminescence; measured here: GAMT inhibition; at 40 µM; stronger effect = lower value. In outline:
as §1

For test [3], the target named is Histamine N-methyltransferase (Homo sapiens) (UniProt P50135). The conditions noted are these: purified enzyme, MTase-Glo SAH luminescence; measured here: HNMT inhibition; at 40 µM; stronger effect = lower value. The gist of the method: as §1
The target of test [4] is Nicotinamide N-methyltransferase (Homo sapiens) (UniProt P40261). The settings on record: purified enzyme, MTase-Glo SAH luminescence; measured here: NNMT inhibition; at 40 µM; stronger effect = lower value. In outline:
as §1

Test [5] addresses Phenylethanolamine N-methyltransferase (Homo sapiens) (UniProt P11086). The settings on record: purified enzyme, MTase-Glo SAH luminescence; measured here: PNMT inhibition; at 40 µM; stronger effect = lower value. The gist of the method:
as §1

Each structure is given as a SMILES string. The list shows a part of the results. These are further read-outs of the screen, such as a control signal, another cell line or another target. No call is given for them.
On the % scale 0 is the no-effect control and ±100 the full control effect.

On to `CCN1C[C@]2(COC(=O)c3ccccc3N3C(=O)C[C@H](C)C3=O)CC[C@H](OC)[C@@]34[C@@H]5C[C@H]6[C@H](OC)[C@@H]5[C@](O)(C[C@@H]6OC)[C@](O)([C@@H](OC)[C@H]23)[C@@H]14`, for which the activity change, negative = inhibition was 3.54% in test [1]; 3.92% in test [2]; 11.7% in test [3]; -7.17% in test [4]; 6.11% in test [5].

In the case of `CCOc1ccc(C2c3cccn3-c3ccccc3CN2C(=O)Nc2cccc(C(=O)OC)c2)cc1` (configuration not stated), the activity change, negative = inhibition stood at 2.15% in test [1]; 5.75% in test [2]; 8.8% in test [3]; 7.46% in test [4]; 8.89% in test [5].

Consider `c1ccc2c(c1)[I+]c1ccccc1-2`, for which the activity change, negative = inhibition was -4.88% in test [1]; 11.2% in test [2]; -26% in test [3]; -21.5% in test [4]; 5.01% in test [5].

With `O=S(=O)(NC[C@H]1C[C@@H]2CCN1C[C@@H]2CN1CCOCC1)c1ccccc1`, the activity change, negative = inhibition in test [1] is -5.49%; in test [2], -4.75%; in test [3], -2.61%; in test [4], -11.1%; in test [5], -21.9%.

Turning to `COc1ccc(NC(=O)N2Cc3ccccc3-n3cccc3C2c2ccc(F)cc2)c(OC)c1` (configuration not stated), the activity change, negative = inhibition in test [1] is -1.29%; in test [2], 1.06%; in test [3], 1.97%; in test [4] it was -0.754%; in test [5], 2.93%.

Consider `CCc1ccccc1NC(=O)N1Cc2ccccc2-n2cccc2C1C` (configuration not stated), for which the activity change, negative = inhibition was 4.09% in test [1]; 3.31% in test [2]; 2.22% in test [3]; 3.33% in test [4]; 7.91% in test [5].

Regarding `CSc1cccc(NC(=O)N2Cc3ccccc3-n3cccc3C2c2ccc(N(C)C)cc2)c1` (configuration not stated), the activity change, negative = inhibition in test [1] turned out to be 15.7%; in test [2], 2.54%; in test [3], 7.12%; in test [4] it was 4.99%; in test [5], 9.53%.

`C[C@@]1(C(=O)O)CC[C@]2(C)CC[C@]3(C)C4=CC(=O)c5cc(O)c(O)cc5[C@]4(C)CC[C@@]3(C)[C@@H]2C1`: the activity change, negative = inhibition in test [1] was 1.52%; in test [2], 7.71%; in test [3], 6.33%; in test [4], -8.36%; in test [5], 4.5%.

For the compound `Cc1ccc(-n2nccn2)c(C(=O)N2CCN(c3nc4cc(Cl)ccc4o3)CCC2C)c1` (configuration not stated), the values for the activity change, negative = inhibition in test [1] and in test [3] were -3.56% and 10.5%, respectively.

`Cc1ccccc1CN1CCC(N2CCC(n3c(=O)[nH]c4ccccc43)CC2)CC1`: the activity change, negative = inhibition in test [1] was -5.22%; in test [2] it was 8.21%; in test [3] it was -8.46%; in test [4], -11%; in test [5], -3.65%.

As to `O=C1Nc2ccccc2C12CCN(Cc1cccnc1)C2` (configuration not stated), the activity change, negative = inhibition in test [1] was -18.5%; in test [2], -1.05%; in test [3], -2.26%; in test [4], -10.1%; in test [5] it was -2.89%.

In the case of `CC1CCN(CC2CCCCCN2C(=O)Cc2ccccc2)CC1` (configuration not stated), the activity change, negative = inhibition in test [1] was -7.24%; in test [2] it was -9.34%; in test [3], -5.33%; in test [4], -18.5%; in test [5], -14.3%.

Take `COc1ccc(C2c3cccn3-c3ccccc3CN2C(=O)Nc2ccc(C)cc2)cc1OC` (configuration not stated): the activity change, negative = inhibition in test [1] worked out at 13.6%; in test [2] it was 2.84%; in test [3], 8.68%; in test [4] it was 8.45%; in test [5], 10.7%.

As to `O=C(NCCN1CCC2(CC1)C(=O)NCN2c1cccc(F)c1)c1ccc2ccccc2c1`, the activity change, negative = inhibition was -23.1% in test [1]; 0.507% in test [2]; -46.6% in test [3]; -28.9% in test [4]; -13.9% in test [5].

In the case of `Cc1cc(C)n(CCC(=O)N2[C@H]3CC[C@@H]2c2cnc(-c4ccccc4)nc2C3)n1`, the activity change, negative = inhibition in test [1] is -1.62%; in test [2], -3.01%; in test [3] it was 0.912%; in test [4], 1.43%; in test [5] it was 1.7%.

For the compound `CCOC(=O)CNC(=O)N1Cc2ccccc2-n2cccc2C1c1ccc(C)cc1` (configuration not stated), the activity change, negative = inhibition was 5.99% in test [1]; 4.01% in test [2]; -1.04% in test [3]; -6.34% in test [4]; 1.15% in test [5].

As to `Cc1ccccc1C1c2cccn2-c2ccccc2CN1C(=O)Nc1cccc(Cl)c1` (configuration not stated), the activity change, negative = inhibition is 6.8% in test [1]; 1.94% in test [2]; 3.4% in test [3]; 0.955% in test [4]; 0.862% in test [5].

Regarding `CCCN(CCC)C1CCc2cccc(O)c2C1` (configuration not stated), the activity change, negative = inhibition in test [1] was 8.43%; in test [2], 15.9%; in test [3] it was 10.3%; in test [4], -3.66%; in test [5], 5.8%.

In the case of `c1cncc(OC[C@@H]2CCN2)c1`, the activity change, negative = inhibition was -4.98% in test [1]; -13.7% in test [2]; -2.25% in test [3]; -23.4% in test [4]; -15.6% in test [5].

Turning to `CCCN1CCc2cccc3c2[C@H]1Cc1ccc(O)c(O)c1-3`, the activity change, negative = inhibition in test [1] is -82.5%; in test [2], 9.17%; in test [3], -13.1%; in test [4], -10.6%; in test [5], 5.3%.

With `NC(N)=NOCCC(N)C(=O)O` (configuration not stated), the activity change, negative = inhibition in test [1] was 7.41%; in test [2], 10.2%; in test [3], 10.5%; in test [4] it was -6.59%; in test [5], 1.78%.

As for `Cc1nccc2c1[nH]c1ccccc12`, the activity change, negative = inhibition in test [1] is -9.33%; in test [2], 7.02%; in test [3] it was -12.5%; in test [4], -19.1%; in test [5] it was 6.62%.

As for `c1cnc2c(c1)NC1(CCCNC1)C(=NC1CCCC1)N2` (configuration not stated), the activity change, negative = inhibition is -9.9% in test [1]; -2.63% in test [2]; -28.5% in test [3]; -18.8% in test [4]; -0.811% in test [5].

Take `CC(C)[C@@H](CN1CC[C@@](C)(c2cccc(O)c2)[C@@H](C)C1)NC(=O)[C@H]1Cc2ccc(O)cc2CN1`: the activity change, negative = inhibition is 4.46% in test [1]; 8.27% in test [2]; -12% in test [3]; -12.1% in test [4]; -0.809% in test [5].

As to `CCc1ccc(C2c3cccn3-c3ccccc3CN2C(=O)Nc2cccc(C)c2)cc1` (configuration not stated), the activity change, negative = inhibition in test [1] was 8.94%; in test [2] it was 4.42%; in test [3], -1.16%; in test [4], 0.771%; in test [5] it was 1.83%.

In the case of `CC(=O)OC[C@]12C[C@H](OC(C)=O)C(C)=C[C@H]1O[C@@H]1[C@H](O)[C@@H](O)[C@@]2(C)[C@]12CO2`, the activity change, negative = inhibition in test [1] is 0%; in test [2] it was 7.74%; in test [3] it was 4.88%; in test [4], -2.5%; in test [5], 6.4%.

Take `Cc1cccc(C2c3cccn3-c3ccccc3CN2C(=O)Nc2ccccc2Br)c1` (configuration not stated): the activity change, negative = inhibition in test [1] was 4.82%; in test [2], -1.54%; in test [3], 0.759%; in test [4] it was -6.24%; in test [5], -2.33%.

Consider `Cn1nc(-c2ccc3ccccc3c2)cc1[C@H]1CN2CC[C@H]1C[C@@H]2CNC(=O)c1ccco1`, for which the activity change, negative = inhibition in test [1] is -7.01%; in test [2], -8.48%; in test [3], -28.8%; in test [4], -13.6%; in test [5], -6.36%.

`Cc1ccc(NC(=O)N2Cc3ccccc3-n3cccc3C2c2ccc(Cl)cc2)cc1` (configuration not stated): the activity change, negative = inhibition in test [1] was -3.15%; in test [2], 2.68%; in test [3] it was -0.971%; in test [4], 0.367%; in test [5], 1.12%.

For `Cc1ccc(C2c3cccn3-c3ccccc3CN2C(=O)NCCc2ccccc2)cc1` (configuration not stated), the activity change, negative = inhibition in test [1] was 12.5%; in test [2], 0%; in test [3], 9.22%; in test [4] it was 11%; in test [5] it was 9.43%.

In the case of `CC1=CC2/C=C(\C)CCC(O)C(O)C(O)CC(=O)C23C(=O)NC(CC(C)C)C3C1C` (configuration not stated), the activity change, negative = inhibition is -0.962% in test [1]; -1.23% in test [2]; -6.86% in test [3]; -15.4% in test [4]; -0.827% in test [5].
